The list shows a part of the results.

The test system of this assay is HepG2. The assay can be described thus: cytotoxicity call (relative viability < 0.9). Conditions: 10 µM.
Regarding `C[N+](C)(C)C[C@H]1CCC[C@@H]1O`, the cytotoxicity call was “inactive”. With `CNCCc1ccc(O)c(O)c1`, the cytotoxicity call is “inactive”.

Take `Cc1cnc(C(=O)N2C[C@H]3CNC[C@H]3C2)cn1`: the cytotoxicity call was “inactive”. The same measure for `CCN(C)C(=O)Oc1cccc(C(C)N(C)C)c1.O=C(O)C(O)C(O)C(=O)O` (centres undefined): “inactive”; for `C[N+]1([O-])C2CCC1CC(OC(=O)C(CO)c1ccccc1)C2` (centres undefined): “inactive”. For the compound `CN1CCN(Cc2ccc[nH]2)CC1`, the cytotoxicity call is “inactive”. On to `CC1=C2C3OC(=O)C(C)C3CCC2(C)C=CC1=O` (centres undefined), for which the cytotoxicity call was “inactive”. For `O=C(O)C[C@H]1CC[C@@H]2NC[C@H](O)COC[C@H]2O1`, the cytotoxicity call was “inactive”. With `COc1ccc(N=[N+]=[N-])cc1`, the cytotoxicity call is “inactive”.

`C=CCC1(O)CCC2C3CCC4=CC(=O)CCC4=C3C=CC21C` (centres undefined): the cytotoxicity call was “inactive”. The same measure for `COc1cccc(-c2ccc3c(CCN)c[nH]c3c2)c1`: “active”; for `CC(C)C12OC1C1OC13C1(C)CCC4=C(COC4=O)C1CC1OC13C2O` (centres undefined): “active”. Take `CC1(C)C(=O)C=CC2(C)C1=C(O)C(=O)C1(C)C2CCC2(C)C(c3ccoc3)CC3OC321` (centres undefined): the cytotoxicity call is “active”.

For `COCC(=O)N1[C@@H]2Cn3c(ccc(C4=CCCC4)c3=O)[C@H]1[C@@H](C(=O)OC)[C@@H]2CO`, the cytotoxicity call was “inactive”. Turning to `O=C(NCNC(=O)N[C@H]1C(=O)NC(=O)N1CO)N[C@H]1C(=O)NC(=O)N1CO`, the cytotoxicity call is “inactive”. In the case of `CC(C)c1cccc(C(C)C)c1O` it was “active”; in that of `CC[C@@H](C)C(=O)O[C@@H]1C[C@@]2(C)[C@H](c3ccoc3)OC(=O)C[C@]23O[C@@]2(C)O[C@]34[C@H](OC(=O)C(C)C)[C@@]3(O)[C@@H](OC(=O)[C@@]5(C)O[C@@H]5C)[C@@]5(C)C[C@]3(O)[C@@](C)([C@H]5CC(=O)OC)[C@@]14O2`, “inactive”. For `NC(=O)CN1CC[C@@H](NC(=O)[C@@H]2CCCN2)C1=O`, the cytotoxicity call was “inactive”. In the case of `C[C@@H](N)Cc1ccco1` it was “inactive”.

For the compound `C[C@@H]1O[C@@H](O[C@H]2CC[C@]3(C=O)[C@H]4CC[C@]5(C)[C@@H](C6=CC(=O)OC6)CC[C@]5(O)[C@@H]4CC[C@]3(O)C2)[C@H](O)[C@H](O)[C@H]1O`, the cytotoxicity call was “active”. For the compound `CCC1(C)CC(=O)NC(=O)C1`, the cytotoxicity call was “inactive”. Turning to `CCC1(c2ccccc2)C(=O)NC(=O)NC1=O`, the cytotoxicity call was “inactive”.

For the compound `COc1ccc(C(=O)O)cc1OC`, the cytotoxicity call was “inactive”.

Regarding `CCCC12CNCC(C)(CNC1)C2=O`, the cytotoxicity call is “inactive”. The same measure for `CC(=O)OC1CC2C(C)(C)C(=O)C=CC2(C)C2CCC3(C)C(=CC(=O)OC3c3ccoc3)C12C` (centres undefined): “active”. The same measure for `CCN1C[C@@]2(C)CC[C@H](OC)C34[C@@H]2[C@H](O)[C@]2(OCO[C@@]25C[C@H](OC)[C@H]2C[C@]3(O)[C@@H]5[C@H]2O)[C@@H]14`: “inactive”; for `CN(C)C(=O)[C@@]1(Cc2ccccc2CN=[N+]=[N-])N=C(c2ccc(OCCCO)cc2)O[C@H]1c1ccccc1N=[N+]=[N-]`: “active”. In the case of `CC1=NCCc2c1[nH]c1cc(O)ccc21.Cl.O.O` it was “active”. As to `c1ccc2sc(C3(N4CCCC4)CCCCC3)cc2c1`, the cytotoxicity call was “inactive”. The same measure for `O=C([O-])c1ccccc1-c1c2cc(Br)c(=O)cc-2oc2[c]([Hg][OH])c([O-])c(Br)cc12.[Na+].[Na+]`: “inactive”; for `CC(=O)N1CCCC[C@]12CCNC2`: “inactive”. Regarding `Cc1ccc(N2CCO[C@@H]3CNCC[C@H]3C2)nn1`, the cytotoxicity call is “inactive”. On to `CN[C@@H]1[C@@H](O)[C@@H](O[C@@H]2[C@H](O)[C@@H](O[C@H]3O[C@H]([C@@H](C)O)[C@@H](O)[C@H](O)[C@H]3N)[C@H](N)C[C@@H]2N)OC[C@]1(C)O`, for which the cytotoxicity call is “inactive”. In the case of `O=C(O)CN1C[C@@H]2C(NC(=O)c3ccno3)[C@H]2C1` (some centres undefined) it was “inactive”; in that of `CCOC(=O)c1c(CN2CCN(c3ccccc3)CC2)n(Cc2ccccc2)c2cc(Br)c(O)cc12`, “inactive”; in that of `N#C[C@H](O[C@@H]1O[C@H](CO)[C@@H](O)[C@H](O)[C@H]1O)c1ccc(O)cc1`, “inactive”. In the case of `N#CC(c1ccccc1)c1ccccc1` it was “inactive”; in that of `C1CCNCC1`, “inactive”. In the case of `C=CCc1ccc(OC)cc1`, the cytotoxicity call is “active”.
